According to the supplement of paper PMC11417369:
± gives the standard deviation of the averaged measurements. The list shows a part of the results.

Tested on: PfAP2-I AP2 domain 3 (GST-tagged)
Assay: gcPBM binding intensity (ln(normalized median fluorescence intensity)); higher = stronger DNA binding
In short: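 An Agilent 4 × 180k array carrying primer-extended double-stranded 36-bp intergenic genomic probes and negative controls received GST-tagged P. falciparum DNA-binding domains expressed in E. coli, about 25 μg on average, for 1 h. The binding buffer contained 1× PBS, 1% milk, 0.2 mg/ml BSA, 0.5% salmon testes DNA and 0.03% Triton X-100. Binding intensity is the top Masliner-normalised natural-log median intensity across replicate spots of either probe orientation, read after Alexa488 anti-GST antibody staining and a 488 nm scan.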

Sequence | gcPBM binding intensity (ln)
TATGTGAATATAATCACACACAATACGGAAACCCAC [CACACA_site2725] | 8.36 ± 0.22
AAAGTCTCATTAAAATGTACAAAATTTTCAGCTGTA [XGTACX_site6296] | 7.32 ± 0.62
TTATATATAAACATAAAAAGAAATATATTATGTATA [CACACA_negctrl_site667] | 7.3 ± 0.54
TAATTTTTAATTGTAGCATGCAGTATTTTTAAATAT [TGCATGCA_site140] | 7.75 ± 0.65
AAAGGGGCATATATATGTACATATTATATATTTTGA [XGTACX_site2436] | 8.44 ± 0.092
ATTATCCATGCATTTACACACACACCCAAAAAAATT [CACACA_site4101] | 8.82 ± 0.44
TTTTTTTTTTTTTGTGCATGTAGATTTATTGTTATA [TGCATGCA_site582] | 8.51 ± 0.47
TTTAAATATATATTTAGTACTTATTCTTAAAATTTT [XGTACX_site624] | 7.66 ± 0.45
AAAAAAGAATAGCACACACACATATATAAATATAAA [CACACA_site4518] | 8.175 ± 0.078
GTTACATACAGATACACACACATATATATATATATA [CACACA_site4652] | 9.48 ± 0.66
GTAGAGGATTAAGAATGTACACATAAATACATATTT [XGTACX_site8874] | 7.79 ± 0.47
AATTATACATACATATATATATTTATATATATATAT [GTGCAC_negctrl_site462] | 8.8 ± 0.35
AAAAAAAAATATATATAAAATTAAAAAATGTAATAT [GTGCAC_negctrl_site581] | 7.45 ± 0.64
ATTAAAAAAAAAAGTATACACACTTCTTAATGTCAA [CACACA_site1244] | 7.39 ± 0.47
TTATATCCCGTCCTTTATTAAAAAAATTTTTTTTCT [TGCATGCA_negctrl_site582] | 8.09 ± 0.62
ATGGGTTGTTCAAATAGTACATATGTAGCCCACCAT [XGTACX_site3735] | 8.34 ± 0.62
AAATATTATGTGGCAAGTACATAAAGAAAATGCTTA [XGTACX_site3356] | 7.67 ± 0.43
ATAATAAGGTTAAGCACACATATTACAGATATAACT [CACACA_site5791] | 8.41 ± 0.26
AATAATAATAATAATAGTACATATTATGAATATGAT [XGTACX_site5730] | 7.73 ± 0.14
TTAAAAATGATTGAATGTACAGATTAATATAATTTT [XGTACX_site7394] | 7.51 ± 0.58
GATCTACATGAAAGGACACACAAATATATATATATA [CACACA_site84] | 9.32 ± 0.17
ATAAATATGGAGCACACACACATAAACATACCTATA [CACACA_site6336] | 8.39 ± 0.17
TAATTTTTGAAACACACACACATATATATATATATA [CACACA_site94] | 9.31 ± 0.42

Sequence | gcPBM binding intensity (ln)
ATTATTTTTTTATGTTGTACATAATATTTTTTAAAA [XGTACX_site1666] | 7.92 ± 0.3
TTCCAACATTGTTTTTGTACATAATTAACTGTTATT [XGTACX_site5224] | 7.88 ± 0.57
CTTAAAAATAACTGCACACAAAAATAAATACCTTAT [CACACA_site2793] | 9.28 ± 0.3
TAATATTTATAAAATAGTACACAGAAAAAGCATTTT [XGTACX_site8948] | 7.95 ± 0.5
ATATATATGGATGGACGTACGTATGTATGTAATTTC [XGTACX_site4135] | 8.26 ± 0.77
ATATATATTTTATTATGTACATATAAATATTACACA [XGTACX_site4062] | 8 ± 0.35
GAAAAAATATATAAATGTACATATAATAATATCATA [XGTACX_site6788] | 7.61 ± 0.38
TCGTATATGGATTTTGCACACAATTTTAATTTAAAT [CACACA_site4635] | 9.52 ± 0.071
ATGATTTGTCTGAAATGTACATATATATATATATAT [XGTACX_site5247] | 9.21 ± 0.33
AACAAATAAACAAAATTGGAAAATAAAAATATCAAA [CACACA_negctrl_site1125] | 7.46 ± 0.66
TAATAATTTTATAAAGTGCATAAAAATAAAAATTTT | 10.6 ± 0.36
TTTTTTTTTTTTTTAATTAATTACCTTTGAATGTGT [CACACA_negctrl_site393] | 7.84 ± 0.59
TTAAATAGAAATAAGACTAACAATGAACCAAAAAAA [CACACA_negctrl_site991] | 7.89 ± 0.63
TTTTGAAAAAGTTGCACACAAAATTTAAAAAAAAAA [CACACA_site1632] | 8.44 ± 0.38
ATATATATATATATATATATAATTTTTTTTGTTTTT [TGCATGCA_negctrl_site453] | 9.66 ± 0.34
TATATTATTAATTAGGGTACAAAAAAAAAATTTTTT [XGTACX_site7762] | 7.99 ± 0.61
GATATCAAAAAGATGGGTACATATATTTAAGTTCAT [XGTACX_site3822] | 7.71 ± 0.67
TAGGAAAAGAAAAGCACACACATAAATAGATATATA [CACACA_site6382] | 8.09 ± 0.31
TCTTTAATATATAGTGCATGTAAATTTTACAATAAT [TGCATGCA_site242] | 9.58 ± 0.23
TATGGTATATACAACACACACACATATGTATATATA [CACACA_site927] | 7.98 ± 0.45
ATCAAGCACGGACACACACACACACCCAGACCCCCA [CACACA_site4360] | 8.49 ± 0.47
AAGTTAACACAACAGGTGCAAGAAAAGTTTTTAATG | 10.39 ± 0.035
AGTTAATGTTTATGTACACACGGTGGGTATATATTT [CACACA_site5785] | 8.12 ± 0.54

Sequence | gcPBM binding intensity (ln)
TGCAACAAAATAAACACACACACACTAACACAAAAA [CACACA_site7567] | 8.24 ± 0.31
TTTAAAAATAAAAGTACACACATAAACATATTGCAC [CACACA_site6784] | 10.8 ± 0.79
ATATTATATATATGTGCACACAAAAGATATATATAT [CACACA_site2125] | 9.78 ± 0.21
TTTTCATTTGAAAGTCGTACAAGTTCGAAAAAAGGA [XGTACX_site6840] | 7.89 ± 0.53
CTTAAAAAAACCTTAACACACATAAACTATAATTTA [CACACA_site3055] | 7.54 ± 0.28
ATAAGCAATAAAAAAACATGCATATTATTATCAACA [TGCATGCA_site1027] | 7.79 ± 0.61
AAAACATACATATATACACACATATATATATATATA [CACACA_site1852] | 9.31 ± 0.61
CAAACTACAAAATTTCGTACGCATATATTTCAAGTA [XGTACX_site5154] | 7.68 ± 0.39
TATGTTGGTTCTTTTAGTACATAATTACTAAATGTA [XGTACX_site8616] | 7.91 ± 0.38
CTTTTTTATATCTCTACACACATTTATAACAATTTG [CACACA_site1398] | 8.05 ± 0.71
TTTAAACGTTATATAGTGCATGTCATATTTTATTAT | 8.62 ± 0.57
TACGTAATAATATGCACACAAATAAACTTTATAAAT [CACACA_site3501] | 9.08 ± 0.14
CAAAAAAGTAAAACGTGTACATATATACATAAAAAT [XGTACX_site5639] | 8.13 ± 0.47
TTTTTTTAACGGTGTGCACACAATATACAGAAAAAA [CACACA_site1415] | 9.85 ± 0.14
TATATACATTTATATACACACCTATATTTATTTATA [CACACA_site7014] | 7.85 ± 0.49
ATTATATATATTTATGCACACAAAATATATTATATA [CACACA_site9244] | 9.78 ± 0.3
ATGTACCTATTTCATACACACACACCCACAAACAAA [CACACA_site8232] | 8.61 ± 0.13
CAACAATTTCGTCATACACACATTCAGAATCTATAT [CACACA_site7171] | 7.65 ± 0.62
TATATTGAAAATAAAACATGCAATCACTCATACATA [TGCATGCA_site248] | 7.41 ± 0.63
TATACATTTATGTACACACACATATAGGTATATTTA [CACACA_site7408] | 7.8 ± 0.085
AAAATATAATATATTACACACATATATTTTATAAGT [CACACA_site668] | 7.58 ± 0.47
TTATTCTAAAAAGGGTGTACACAAACGAATGGAAAA [XGTACX_site5662] | 8.98 ± 0.38
AGCAGTCAGCAGGACAGTACACAGTAGCCAGGAAAT [XGTACX_site4877] | 7.78 ± 0.95

Sequence | gcPBM binding intensity (ln)
AAAAAAAAAATTTAGGTGCATACAAATAAATTATAT [GTGCAC_site9521] | 10.2 ± 0.48
ATGGCTAAAAGTTGCACACACACAAAAAAAAAAAAA [CACACA_site3289] | 8.76 ± 0.16
TATATATTAATATGCACACACAAGAAGTAATTATAA [CACACA_site3193] | 9.085 ± 0.035
GGCATACACGGACACACACACACACCGACATATATA [CACACA_site4493] | 8.46 ± 0.3
ATTATATAACAAAATAGTACATATATTTATTACATC [XGTACX_site336] | 7.8 ± 0.47
TGCACAAAATTATGCACACACCTAAAATTAATTTTT [CACACA_site5596] | 9.98 ± 0.32
ATTCTAATCATATACACACCCATATATATATATATA [CACACA_site1774] | 9.4 ± 0.46
GGCAATGATTTTAGGTGTACTTAAAAATCAAATTAA [XGTACX_site8587] | 7.99 ± 0.13
TAATTTCTTATGTGCTATCTTATATAGAATTAATTT [CACACA_negctrl_site1726] | 7.72 ± 0.48
TATAAAAAATAAAATACACACACATATATATATATA [CACACA_site8365] | 9.34 ± 0.2
AAGAAAAAAAAAAAAACACACATATATTTATTTATA [CACACA_site7042] | 7.3 ± 0.42
GAAAGAAAAAATGATGAATAGAGATCAAATCTATAT [XGTACX_negctrl_site28] | 7.46 ± 0.73
TATACACATAGACACACACACAAAAAAAAAAAAAAA [CACACA_site6338] | 8.02 ± 0.71
TGACATATTATTAGGTGGTCACGTCTCCACGTCAAG [XGTACX_site7943] | 7.89 ± 0.45
TTGAGAAAAATTAATGGTACACATATTATAAGTATA [XGTACX_site6539] | 7.88 ± 0.32
TGTATAACATTTAGGTGTACAATTATATATAATATA [XGTACX_site8131] | 7.99 ± 0.32
TAATTGTACACATGCACACACAAATATTATAGATGT [CACACA_site6528] | 8.665 ± 0.035
TAAAAATAAATAAATACATGCACCAAAAATAAATTT [TGCATGCA_site801] | 9.43 ± 0.17
AAAAAAAAAAAACATACACACACATATATATATATA [CACACA_site8452] | 9.485 ± 0.064
ATTGTTAAATATAATACACACGTTTTTAAAAATATA [CACACA_site5239] | 7.8 ± 0.49
